# Laboratory results: the supplement of paper PMC10600219
# Where a name gives a salt, the structure may show the parent alone. The full ranking holds about 2,800 compounds; the median of “cell viability relative to vehicle” is about 0.98, and the lowest 2% start at about 0.45. This is one part of the list.
# System: NCI-H2228 alectinib-DTP
# Experiment: cell viability relative to vehicle (fraction of vehicle); NCI-H2228 is an ALK-positive lung cancer line and DTP means drug-tolerant persister; higher = less growth inhibition
# Details: 100 nM; treatment time 6 days
# In short: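 Drug-tolerant persister NCI-H2228 cells, produced by 13 days in 1000 nM of a targeted drug, and their parental counterparts were seeded into 384-well plates and, the following day, given the 3114-agent TargetMol anti-cancer compound library at 100 nM or DMSO vehicle. After 6 days, the CellTiter-Glo 3D Cell Viability Assay was used to read ATP. Each entry reports viability compared with vehicle-treated cells.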
row,Structure (SMILES),cell viability
1,CC(C(=O)O)c1ccc(N2Cc3ccccc3C2=O)cc1 (stereo not drawn) [Indoprofen],1.08
2,CN(C)CCOc1ccc(/C(=C(/CCCl)c2ccccc2)c2ccccc2)cc1 [Toremifene citrate],0.936
3,CN(C)CCOc1ccc(/C(=C(/CCCl)c2ccccc2)c2ccccc2)cc1 [Toremifene],1.19
4,CCCN(CCC)C(=O)C1=Cc2ccc(-c3ccc(C(=O)N4CCCC4)cc3)cc2N=C(N)C1 [Motolimod],1.07
5,O=C(NCCO[N+](=O)[O-])c1cccnc1 [Nicorandil],0.916
6,Cc1ccc(Cl)c(Nc2ccccc2C(=O)O)c1Cl [Meclofenamate Sodium],0.958
7,CC1=C(/C=C/C(C)=C/C=C/C(C)=C/C=C/C=C(C)/C=C/C=C(C)/C=C/C2=C(C)CCCC2(C)C)C(C)(C)CCC1 [Beta-Carotene],0.961
8,CC[C@H]1OC(=O)[C@H](C)[C@@H](O[C@H]2C[C@@](C)(OC)[C@@H](O)[C@H](C)O2)[C@H](C)[C@@H](O[C@@H]2O[C@H](C)C[C@H](N(C)C)[C@H]2O)[C@](C)(O)C[C@@H](C)C(=O)[C@H](C)[C@@H](O)[C@]1(C)O [Erythromycin],1.14
9,CC(C(=O)O)c1ccc(CC2CCCC2=O)cc1 (stereo not drawn) [Loxoprofen],1.21
10,O=C(O)CCc1nc(-c2ccccc2)c(-c2ccccc2)o1 [Oxaprozin],1.26
11,O=C(c1cc(Cc2n[nH]c(=O)c3ccccc23)ccc1F)N1CCN(C(=O)C2CC2)CC1 [Olaparib],1.07
12,CC(C)(Oc1ccc(CCNC(=O)c2ccc(Cl)cc2)cc1)C(=O)O [Bezafibrate],1.07
13,OCCN1CCN(CCCN2c3ccccc3Sc3ccc(C(F)(F)F)cc32)CC1 [Fluphenazine hydrochloride],1.17
14,c1ccc(CC2=NCCN2)cc1 [Tolazoline hydrochloride],1.01
15,COc1c(O)cc2occ(-c3ccc(O)cc3)c(=O)c2c1O [Tectorigenin],1.02
16,CCc1ccc(CCOc2ccc(CC3SC(=O)NC3=O)cc2)nc1 (stereo not drawn) [Pioglitazone],0.967
17,Cc1ccc(N(CC2=NCCN2)c2cccc(O)c2)cc1 [Phentolamine mesilate],0.956
18,CC(C)Nc1cc(-c2c[nH]c(C(=O)N[C@H](CO)c3cccc(Cl)c3)c2)c(Cl)cn1 [Ulixertinib],1.06
19,c1ccc(-c2nc(-c3ccc(-c4nc(-c5ccccc5)c(-c5ccccc5)[nH]4)cc3)[nH]c2-c2ccccc2)cc1,0.986
20,CO[C@H]1/C=C/O[C@@]2(C)Oc3c(C)c(O)c4c(O)c(c(/C=N/N5CCN(C)CC5)c(O)c4c3C2=O)NC(=O)/C(C)=C\C=C\[C@H](C)[C@H](O)[C@@H](C)[C@@H](O)[C@@H](C)[C@H](OC(C)=O)[C@@H]1C [Rifampicin],1.15
21,CC(=O)C1=C(O)C=C2Oc3c(C(C)=O)c(O)c(C)c(O)c3C2(C)C1=O (stereo in doubt) [Usnic Acid],1.06
22,CCCSc1ccc2[nH]c(NC(=O)OC)nc2c1 [Albendazole],1.03
23,Cc1c(Cl)cccc1Nc1ccccc1C(=O)O [Tolfenamic Acid],0.929
24,C(=N\NC1=NCCN1)/c1c2ccccc2c(/C=N/NC2=NCCN2)c2ccccc12 [Bisantrene],1.12
25,COCCCC/C(=N\OCCN)c1ccc(C(F)(F)F)cc1 [Fluvoxamine maleate],1.08

row,Structure (SMILES),cell viability
1,NC(=O)N[C@@H](CCC(=O)O)C(=O)O [Carbaglu],1.01
2,O=C1/C(=C/c2cccs2)CC/C1=C\c1cccs1,1.05
3,O=C(Nc1cc(C(F)(F)F)cc(C(F)(F)F)c1)c1cc(Cl)ccc1O,1.05
4,C[C@H](N[C@@H](CCc1ccccc1)C(=O)O)C(=O)N1CCC[C@H]1C(=O)O [Enalaprilat Dihydrate],1.12
5,NC(=O)N1CCC(CC(=O)N2CCC([C@H]3c4ncc(Br)cc4CCc4cc(Cl)cc(Br)c43)CC2)CC1 [Lonafarnib],0.795
6,CC1(C)CC[C@]2(C(=O)O)CC[C@]3(C)C(=CC[C@@H]4[C@@]5(C)CCC(=O)C(C)(C)[C@@H]5CC[C@]43C)[C@@H]2C1 [Oleanonic Acid],1.02
7,CNC(=O)c1cc(Oc2ccc(NC(=O)c3cccc(C(F)(F)F)c3)cc2)ccn1,1.13
8,CS(=O)(=O)c1ccc(C(=O)Nc2ccc(Cl)c(-c3ccccn3)c2)c(Cl)c1 [Vismodegib],0.988
9,COc1ccc(CC(C)NCC(O)c2ccc(O)c(NC=O)c2)cc1 (stereo not drawn) [Formoterol Hemifumarate],0.876
10,COc1ccc(CC(C)NCC(O)c2ccc(O)c(NC=O)c2)cc1 (stereo not drawn) [Formoterol],0.931
11,CC(C)C[C@H](NC(=O)[C@H](Cc1ccccc1)NC(=O)c1cnccn1)B(O)O [Bortezomib],0.145
12,"Cc1ccc2c(c1)C(=O)C1(O)CCN(c3ccccc3)C1=N2 (single isomer, unassigned; (-)) [(-)-Blebbistatin]",0.955
13,CC(CN1CC(=O)N(CN2CCOCC2)C(=O)C1)N1CC(=O)N(CN2CCOCC2)C(=O)C1 (stereo not drawn) [Probimane],0.977
14,COc1ccc(-c2coc3cc(O)ccc3c2=O)cc1 [Formononetin],1.12
15,CN1CCN(S(=O)(=O)c2ccc(-c3cnc(N)c(C(=O)Nc4cccnc4)n3)cc2)CC1,1.18
16,O=C(NOCC1CC1)c1ccc(F)c(F)c1Nc1ccc(I)cc1Cl,0.864
17,Nc1nc(F)nc2c1ncn2[C@@H]1O[C@H](COP(=O)(O)O)[C@@H](O)[C@@H]1O [Fludarabine Phosphate],0.997
18,COc1ccc(S(=O)(=O)/N=C2\C=CC=C\C2=C/C=C2C=CN(O)C=C2)cc1,0.935
19,CCOC(=O)N1CCC(=C2c3ccc(Cl)cc3CCc3cccnc32)CC1 [Loratadine],1
20,NC(=O)c1ccccc1O [Salicylamide],1.16
21,CC1(C)CCC(c2ccc(Cl)cc2)=C(CN2CCN(c3ccc(C(=O)NS(=O)(=O)c4ccc(N[C@H](CCN5CCOCC5)CSc5ccccc5)c(S(=O)(=O)C(F)(F)F)c4)cc3)CC2)C1 [Navitoclax],1.08
22,CCCCCN(C)CCC(O)(P(=O)(O)O)P(=O)(O)O [Ibandronate sodium],1.01
23,CCS(=O)(=O)Nc1ccc(Oc2ccc(F)cc2F)c(-c2cn(C)c(=O)c3[nH]ccc23)c1 [Mivebresib],0.736
24,O=c1ccc2cc3ccoc3cc2o1 [Psoralen],1.05
25,Oc1ccc2c(c1)OC[C@]1(O)Cc3cc(O)c(O)cc3[C@H]21 [Brazilin],1.11

row,Structure (SMILES),cell viability
1,C=C(C)[C@@H]1CC[C@]2(C(=O)O)CC[C@]3(C)[C@H](CC[C@@H]4[C@@]5(C)CC[C@H](O)C(C)(C)[C@@H]5CC[C@]43C)[C@@H]12 [Betulinic acid],0.953
2,CCOc1cc(N2CCC(O)CC2)ccc1Nc1ncc2c(n1)N(C1CCCC1)CCC(=O)N2C,0.978
3,C[C@@H](O)[C@H]1C(=O)N2C(C(=O)O)=C(SCCNC=N)C[C@H]12 [Imipenem],0.956
4,CC(C)NC(=O)COc1cccc(-c2nc(Nc3ccc4[nH]ncc4c3)c3ccccc3n2)c1,0.923
5,CC(C)OC(=O)C(C(=O)OC(C)C)=C1SC=CS1 [Malotilate],0.884
6,CC1=C(C(=O)Nc2ccc3[nH]ncc3c2)C(c2ccc(F)c(C(=O)NCc3ccccn3)c2)NC(=O)N1 (stereo not drawn),1
7,CCN(CC)CCCC(C)Nc1ccnc2cc(Cl)ccc12 (stereo not drawn) [Chloroquine diphosphate],1.11
8,Cn1cc(-c2cnn3c(N)c(Br)c([C@H]4CCCNC4)nc23)cn1,0.907
9,CCNC(=O)[C@H]1O[C@@H](n2cnc3c(N)nc(NCCc4ccc(CCC(=O)O)cc4)nc32)[C@H](O)[C@@H]1O,1
10,CC(C)=CCC[C@](C)(O)[C@H]1CC[C@]2(C)[C@@H]1[C@H](O)C[C@@H]1[C@@]3(C)CC[C@H](O[C@@H]4O[C@H](CO)[C@@H](O)[C@H](O)[C@H]4O[C@@H]4O[C@H](CO)[C@@H](O)[C@H](O)[C@H]4O)C(C)(C)[C@@H]3CC[C@]12C [Ginsenoside Rg3],0.945
11,O=C(COc1cccc2c(=O)[nH]ccc12)c1ccccc1,0.996
12,CC(C)c1nc(N(C)S(C)(=O)=O)nc(-c2ccc(F)cc2)c1/C=C/[C@@H](O)C[C@@H](O)CC(=O)O [Rosuvastatin],0.801
13,CC(=O)c1ccc(NC2=C(Cl)C(=O)c3ccccc3C2=O)cc1,0.908
14,Nc1ccc(S(=O)(=O)NC(=O)c2ccccc2)cc1 [Sulfabenzamide],0.915
15,C[C@@H](O)[C@H]1C(=O)N2C(C(=O)O)=C(S[C@@H]3CN[C@H](C(=O)Nc4cccc(C(=O)O)c4)C3)[C@H](C)[C@H]12 [Ertapenem sodium],0.975
16,COc1ccc([C@@H]2OC[C@H]3[C@@H]2CO[C@@H]3c2ccc(O[C@@H]3O[C@H](CO)[C@@H](O)[C@H](O)[C@H]3O)c(OC)c2)cc1OC [Forsythin],0.913
17,N#C/C(=C\c1ccc(O)c(O)c1)C(=O)Nc1ccccc1,0.971
18,C=CC(C)(O)CCC=C(C)CCC=C(C)C (mixture of isomers) [nerolidol],1.07
19,C/C(=C1/C(=O)Nc2ccc(NC(N)=O)cc21)c1ccc[nH]1,1.02
20,O=C1NC(=O)/C(=C/c2ccc3nccc(-c4ccncc4)c3c2)S1,0.921
21,O=C1NC(=O)C(c2ccccc2[N+](=O)[O-])=C1Nc1ccc(O)c(Cl)c1,0.909
22,COCCOc1nc(-c2ccc(Cl)c(Cl)c2)n(-c2ccc(NC(=O)CCl)cc2)n1 [MI 2 (MALT1 inhibitor)],1.14
23,CC(C)[C@H](NC(=O)CCCCCN1C(=O)C=CC1=O)C(=O)N[C@@H](CCCNC(N)=O)C(=O)Nc1ccc(COC(=O)Oc2ccc([N+](=O)[O-])cc2)cc1,0.826
